{"source": "patent US9493795B2", "about": "(Algenol Biofuels Inc., priority 2013, dated 2016)", "test_system": "alcohol dehydrogenase from Lyngbya sp., wild type, SEQ ID NO: 1", "experiment": "Km determination of native Adh in cell extract (forward and back reaction), Lyngbya sp.", "type": "biochemical", "conditions": "as Example 4: 0.15 mM NADPH, pH 7.5, 30° C.; FIG. 15A"}
{"smiles": "CCC=O", "note": "[propanal]", "values": [{"measurement": "Vmax (propanal)", "result": "approximately 0.035 μmol per mg protein and min"}]}
